Paper PMC12136788
Some of the results follow.

T1: UNK ZnF1-6 (called full-length) (human, UniProt Q9C0B0 30-357)
T1 sequence: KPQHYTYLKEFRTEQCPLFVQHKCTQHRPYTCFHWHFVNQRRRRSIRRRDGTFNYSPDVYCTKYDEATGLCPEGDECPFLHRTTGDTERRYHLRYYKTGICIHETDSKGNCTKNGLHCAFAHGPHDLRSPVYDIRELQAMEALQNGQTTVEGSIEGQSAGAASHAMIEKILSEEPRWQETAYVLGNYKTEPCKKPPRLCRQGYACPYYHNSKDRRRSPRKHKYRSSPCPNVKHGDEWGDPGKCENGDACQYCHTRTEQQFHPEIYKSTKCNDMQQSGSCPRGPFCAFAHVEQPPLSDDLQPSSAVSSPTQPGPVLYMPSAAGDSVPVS

B1: chr9:15468732:15468834:-|CDS|ENSG00000164985|unk|FALSE|unique (ssRNA)
RNA: GGGAGUUCUACAGUCCGACGAUCAAUUAGGAAAACAAUUAUGAUGAAUGUAUAUUGUUUUCUCAGAUACGGCGAUUCAAAGUUAGUCAGGUAAUCAUGGAAAAGUCUACAAUGUUGUAUAACAAGUUUAAGAACAUGUUCUUGCAACAGAGGAUUGAGCAUCA
B2: chr5:37333503:37333606:-|CDS|ENSG00000113569|unk|total|mutant (ssRNA)
RNA: GGGAGUUCUACAGUCCGACGAUCGAUGACAGCUGGUGUUGAUGGUCAUUCCUGGGCUCUUUCUGCGACCGAUGAAUUGAAAGCCGAUAAAAUAAUUACACCUUUAAACAAGGAUCAUAUUCCAAUAACUGAUUCACCAGUUGUCAACAGAGGAUUGAGCAUCA
B3: chr7:99546688:99548407:-|CDS|ENSG00000221909|control|control|control (ssRNA)
RNA: GGGAGUUCUACAGUCCGACGAUCCUUGACACGGUUAAAAACAAAGAAGAGAAAUAGGCUCAAUAGUGCACCAGAUAUGCGGGUAGCAUUAUCUUCAUGUGUUCCUGACUGGAAGGAACUUAUGAACAGACAAGCACACCCAUCCAACAGAGGAUUGAGCAUCA
B4: chr10:95611293:95611394:-|CDS|ENSG00000059573|msi1|total|mutant (ssRNA)
RNA: GGGAGUUCUACAGUCCGACGAUCCCCCUCCGAAGUGAAGUCACUCCGAACUGAGUAUGGGGACCUGGAAUUAUGCAUUGAAGCCGUGGACAACGUUCAGGAUGCCAUUGACCACAUCCACAAGUAUGGCAGCUCCCACACGGACAACAGAGGAUUGAGCAUCA
B5: chr15:52122579:52122653:-|3pUTR|ENSG00000069966|msi1_unk|FALSE|overlapping (ssRNA)
RNA: GGGAGUUCUACAGUCCGACGAUCUCUUCACAUGUAAAUAGAUAUUACUUCUAGAGGAGCUUAGAGUUUAUUGCAGUGUAGCUUAGGGGAGCAACCCAUGGCUCACAGGUCACUAAGCGUCUCCAAUAUGACUAUUAAAACUGUCAACAGAGGAUUGAGCAUCA
B6: ENSG00000070961:be:win_1901|CDS|ENSG00000070961|bound_else_gene|NA|bound_elsewhere_windowed (ssRNA)
RNA: GGGAGUUCUACAGUCCGACGAUCAAACUGUGAUUGAACCGAUGGCAUCAGAAGGCUUGAGAACCAUAUGUCUUGCAUUCAGAGAUUUUCCAGCAGGAGAACCAGAACCAGAGUGGGAUAAUGAAAAUGAUAUUGUCACCGGCCCAACAGAGGAUUGAGCAUCA
B7: chr12:56162362:56162467:-|3pUTR|ENSG00000139613|unk|total|mutant (ssRNA)
RNA: GGGAGUUCUACAGUCCGACGAUCGGUUCCUCCCACCAGGCCCUUUGUUCCUCAUGUCCCCAUGUUUCUCUCCCUCUGCGUCUCCGCACCUUUCUUCUGUUCAAAGUUUUCUGUAAAUUUUCUCUUUUUUUCUUUCUUUCUUUUCAACAGAGGAUUGAGCAUCA
B8: chr1:217137657:217137758:-|5pUTR|ENSG00000196482|msi1|FALSE|unique (ssRNA)
RNA: GGGAGUUCUACAGUCCGACGAUCCGGGCUCCAGGCCGGGCUCCCUAAACGGGUCAGCAAUUGGAGCGGGAAGGCCGGACAGGUAGGUGGCGUGGGGCGCACAAGCCCGGCAGCGAUAACCGGGGACGUCUGUACUGCUUCCAACAACAGAGGAUUGAGCAUCA
B9: chr16:58599380:58599482:-|5pUTR|ENSG00000125107|unk|total|mutant (ssRNA)
RNA: GGGAGUUCUACAGUCCGACGAUCCAGAACAGAGUAAGACCCCUGGUAAAGAAGAACUGAAGAUAUUAUACAGAUACCAGAUACCGCCUAAUUACAAAGAAAGCAUUAACCUGCCUCUGAGGUGACUAAAGGGGAAUAAUGGUGCAACAGAGGAUUGAGCAUCA
B10: chr10:7163078:7163179:-|3pUTR|ENSG00000198879|unk|FALSE|unique (ssRNA)
RNA: GGGAGUUCUACAGUCCGACGAUCAGAGGUGCCUUUUAGGAAUACGGGGAGUGAAGGAAGGCCGGCAGGCAUCUCCAUGCAACUAGAUGGUUUGUUUGUUUGUUUGUUUGUUUGUUGUUCAUUUUGUUGUGUUUUUUGAGACAGCAACAGAGGAUUGAGCAUCA
B11: chr13:45969211:45969312:-|CDS|ENSG00000123200|unk|total|mutant (ssRNA)
RNA: GGGAGUUCUACAGUCCGACGAUCGUCCCUGACCGUACAGAGGUGACAGAAGCAGAGCAUACUGCCACCGCCACGACUCCUGGCCGUACCCCUUCUCCUCUAUCUUCUCUUCUUCCUCCUCCACCGCCUGUGGCUACUGCCACUCAACAGAGGAUUGAGCAUCA
B12: ENSG00000248905:stop:overlap|stop_codon|ENSG00000248905|stop_codon|NA|stop_codon (ssRNA)
RNA: GGGAGUUCUACAGUCCGACGAUCAAGACACAGAAGAAAAAGUGGGACUGAAGUACACUGAAGCAGGUAAUGUGAAAGGAAGCUAGGGACCCGGGAAUGAAUCUCUUCCUGCAAUGGCUUUUAGUUCUAGCUUAGUUGACUCUCCAACAGAGGAUUGAGCAUCA
B13: chr10:49131153:49131612:-|three_prime_utr|ENSG00000172538|control|control|control (ssRNA)
RNA: GGGAGUUCUACAGUCCGACGAUCCUGCCCUCACCUCCAGGGCCUGGGACUGCUCCUUCCCCAGCCAGCAGUAUCAGAGCCACUAGGGCAGGGAGAGAGGACCAGGGUCAGGGGGAAGGAAAGGCAUGGAGUGUAGAGCAAGGACAACAGAGGAUUGAGCAUCA
B14: chr8:76983344:76983445:-|CDS|ENSG00000164751|msi1|FALSE|unique (ssRNA)
RNA: GGGAGUUCUACAGUCCGACGAUCAGCCACCAGUGGCAAAGAAUGCGCUCUAUGUGGAGAGUGGCCCACCAUGCCUCACACCAUAGGAUGUGAGCAUAUUUUCUGUUAUUUCUGUGCUAAGAGUAGUUUCUUAUUUGACGUGUACAACAGAGGAUUGAGCAUCA

Target: T1, UNK ZnF1-6 (called full-length)
Experiment: nsRBNS (natural sequence RNA bind-n-seq); RBNS binding buffer (assumed for nsRBNS): 25 mM Tris pH 7.5, 150 mM KCl, 3 mM MgCl2, 0.01% Triton X-100, 500 ug/ml BSA, 20 U/ml SUPERase-In, 4 C; UNK is unkempt and MSI1 is Musashi-1; names of the RNAs are library labels; protein concentration not given here; high values mean tight binding

Row | Binder | binding signal
1 | B1 | 0.443 enrichment R
2 | B2 | 0.505 enrichment R
3 | B3 | 0.467 enrichment R
4 | B4 | 0.482 enrichment R
5 | B5 | 0.809 enrichment R
6 | B6 | 0.571 enrichment R
7 | B7 | 1.61 enrichment R
8 | B8 | 0.987 enrichment R
9 | B9 | 0.642 enrichment R
10 | B10 | 1.27 enrichment R
11 | B11 | 1.3 enrichment R
12 | B12 | 0.324 enrichment R
13 | B13 | 0.997 enrichment R
14 | B14 | 0.515 enrichment R
